Results published in the supplement of paper PMC7125110.
This sample is rich in variants without activity.

B1: glmS ribozyme (parent)
chain: AUAAAAGCGCCAGAACUACAGAAAUGUAGUUGACGAGGAGGAGGUUUAUCGAAUUUUCGGCGGAUGCCUCCAAA

Assays:
Conditions in all cases: with glucosamine-6-phosphate
[1] = variants of: B1; test: self-cleavage kobs at 40 uM GlcN6P; higher = faster cleavage; RNA array
Procedure, shortened: (§1)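 Barcoded ribozyme variants, transcribed in situ by E. coli RNA polymerase on sequenced MiSeq chips, were followed via a hybridised Cy3 probe at 37 °C. Glucosamine-6-phosphate ranged from 40 μM to 10 mM in HEPES/KCl/Mg(OAc)2 buffer. kobs came from decay fits to per-tile medians, and kcat and KM from weighted Michaelis–Menten fits.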

[2] = variants of: B1; test: self-cleavage kobs at 160 uM GlcN6P; higher = faster cleavage; RNA array
Procedure, shortened: as §1

[3] = variants of: B1; test: self-cleavage kobs at 10000 uM GlcN6P; higher = faster cleavage; RNA array
Procedure, shortened: as §1

[4] = variants of: B1; test: self-cleavage kobs at 2500 uM GlcN6P; higher = faster cleavage; RNA array
Procedure, shortened: as §1

[5] = variants of: B1; test: self-cleavage kobs at 640 uM GlcN6P; higher = faster cleavage; RNA array
Procedure, shortened: as §1

[6] = variants of: B1; test: kcat; higher = faster cleavage; RNA array
Procedure, shortened: as §1

G7A A33U
< 1e-05 s⁻¹: self-cleavage kobs at 40 uM GlcN6P [1] | self-cleavage kobs at 160 uM GlcN6P [2] | self-cleavage kobs at 10000 uM GlcN6P [3]

C10G G40U U55G
< 1e-05 s⁻¹: self-cleavage kobs at 40 uM GlcN6P [1] | self-cleavage kobs at 2500 uM GlcN6P [4] | self-cleavage kobs at 10000 uM GlcN6P [3]

C8A G32A
< 1e-05 s⁻¹: self-cleavage kobs at 40 uM GlcN6P [1] | self-cleavage kobs at 640 uM GlcN6P [5] | self-cleavage kobs at 2500 uM GlcN6P [4] | self-cleavage kobs at 10000 uM GlcN6P [3]

A6C A15G
< 1e-05 s⁻¹: self-cleavage kobs at 40 uM GlcN6P [1]

G7U C10A
< 1e-05 s⁻¹: self-cleavage kobs at 40 uM GlcN6P [1] | self-cleavage kobs at 640 uM GlcN6P [5] | self-cleavage kobs at 160 uM GlcN6P [2] | self-cleavage kobs at 2500 uM GlcN6P [4] | self-cleavage kobs at 10000 uM GlcN6P [3]

G7A A52C
< 1e-05 s⁻¹: self-cleavage kobs at 40 uM GlcN6P [1] | self-cleavage kobs at 640 uM GlcN6P [5] | self-cleavage kobs at 160 uM GlcN6P [2] | self-cleavage kobs at 2500 uM GlcN6P [4] | self-cleavage kobs at 10000 uM GlcN6P [3]

A6G C16A G38U
< 1e-05 s⁻¹: self-cleavage kobs at 40 uM GlcN6P [1]

C8U G43C
< 1e-05 s⁻¹: self-cleavage kobs at 40 uM GlcN6P [1] | self-cleavage kobs at 640 uM GlcN6P [5] | self-cleavage kobs at 160 uM GlcN6P [2] | self-cleavage kobs at 2500 uM GlcN6P [4] | self-cleavage kobs at 10000 uM GlcN6P [3]

G9U G35U
< 1e-05 s⁻¹: self-cleavage kobs at 40 uM GlcN6P [1] | self-cleavage kobs at 640 uM GlcN6P [5] | self-cleavage kobs at 160 uM GlcN6P [2] | self-cleavage kobs at 2500 uM GlcN6P [4] | self-cleavage kobs at 10000 uM GlcN6P [3]

G7A G32A C58A
< 1e-05 s⁻¹: self-cleavage kobs at 40 uM GlcN6P [1] | self-cleavage kobs at 10000 uM GlcN6P [3]

G9U U65A
< 1e-05 s⁻¹: self-cleavage kobs at 40 uM GlcN6P [1] | self-cleavage kobs at 640 uM GlcN6P [5] | self-cleavage kobs at 2500 uM GlcN6P [4] | self-cleavage kobs at 10000 uM GlcN6P [3]

G9U U55G
< 1e-05 s⁻¹: self-cleavage kobs at 40 uM GlcN6P [1] | self-cleavage kobs at 640 uM GlcN6P [5] | self-cleavage kobs at 2500 uM GlcN6P [4] | self-cleavage kobs at 10000 uM GlcN6P [3]

G9U U47G U54C
< 1e-05 s⁻¹: self-cleavage kobs at 40 uM GlcN6P [1] | self-cleavage kobs at 10000 uM GlcN6P [3]

G37U U54C
< 1e-05 s⁻¹: kcat [6] | self-cleavage kobs at 40 uM GlcN6P [1] | self-cleavage kobs at 640 uM GlcN6P [5] | self-cleavage kobs at 160 uM GlcN6P [2]

A33G G59C U69G
< 1e-05 s⁻¹: kcat [6] | self-cleavage kobs at 10000 uM GlcN6P [3]

G37C A39C
< 1e-05 s⁻¹: kcat [6] | self-cleavage kobs at 160 uM GlcN6P [2] | self-cleavage kobs at 2500 uM GlcN6P [4]

G7U G37U U55A
< 1e-05 s⁻¹: self-cleavage kobs at 40 uM GlcN6P [1]

G7U G32A G41C U49A U55G G63C
< 1e-05 s⁻¹: self-cleavage kobs at 40 uM GlcN6P [1] | self-cleavage kobs at 640 uM GlcN6P [5] | self-cleavage kobs at 2500 uM GlcN6P [4] | self-cleavage kobs at 10000 uM GlcN6P [3]

C8U G38C G43A G44C G63U
< 1e-05 s⁻¹: self-cleavage kobs at 40 uM GlcN6P [1]

A36G C68A
< 1e-05 s⁻¹: kcat [6] | self-cleavage kobs at 40 uM GlcN6P [1] | self-cleavage kobs at 10000 uM GlcN6P [3]

A36G C68U
< 1e-05 s⁻¹: kcat [6]
